Results: the supplement of paper PMC4967469
IC50 is the fitted dose that halves viability relative to control wells, and lower means more sensitive; where the fit passes the top or lowest dose, that dose stands as a limit. For AUC the same curve is integrated over the 256-fold range of doses and scaled to a fraction; it is 1 without any effect and falls as sensitivity rises. For some assays here: A top dose marked as inferred was calculated from the reported fits. For some assays here: Drugs with an entry number were screened twice under separate entries, and the two screens often disagree.

Experiments:
Test in all cases: Viability of human cancer cell lines after 72 h of drug (GDSC screen)
Epothilone B = compound: C/C(=C\c1csc(C)n1)[C@@H]1C[C@@H]2O[C@]2(C)CCC[C@H](C)[C@H](O)[C@@H](C)C(=O)C(C)(C)[C@@H](O)CC(=O)O1 [Epothilone B]; settings: top dose 0.032 µM; top dose inferred
Protocol: (§1)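 Human cancer cell lines in 384-well plates, medium with 10% serum, drug for 72 h over a 256-fold dose range (nine 2-fold or five 4-fold steps up to the top dose). Adherent lines were fixed and stained with the nucleic acid dye Syto60, suspension lines read with resazurin; signal relative to control wells, capped at 0 and 100%. One two-parameter sigmoid per drug and line, fitted in a mixed model over all curves with the slope shared within a line.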

PHA-793887 = compound: CC(C)CC(=O)Nc1n[nH]c2c1CN(C(=O)C1CCN(C)CC1)C2(C)C [PHA-793887]; settings: top dose 10.24 µM
Protocol: as §1

PLX4720 = compound: CCCS(=O)(=O)Nc1ccc(F)c(C(=O)c2c[nH]c3ncc(Cl)cc23)c1F [PLX4720]; settings: top dose 10 µM
Protocol: as §1

Y-39983 = compound: C[C@@H](N)c1ccc(C(=O)Nc2ccnc3[nH]ccc23)cc1 [Y-39983]; settings: top dose 20 µM; top dose inferred
Protocol: as §1

TPCA-1 = compound: NC(=O)Nc1sc(-c2ccc(F)cc2)cc1C(N)=O [TPCA-1]; settings: top dose 20 µM
Protocol: as §1

[1] = screen: GDSC drug entry 1371, top dose inferred

## ASH-3 (thyroid, adherent)
Epothilone B
  AUC: 0.454
  IC50: 0.0015 µM
PHA-793887
  AUC: 0.987
  IC50: > 10.2 µM
PLX4720; screen: GDSC drug entry 1036
  AUC: 0.988
  IC50: > 10 µM
PLX4720; [1]
  AUC: 0.987
  IC50: > 10 µM
Y-39983
  AUC: 0.988
  IC50: > 20 µM
TPCA-1
  AUC: 0.984
  IC50: > 20 µM

## AU565 (breast, adherent)
Epothilone B
  AUC: 0.584
  IC50: 0.00349 µM
PHA-793887
  AUC: 0.891
  IC50: > 10.2 µM
PLX4720; screen: GDSC drug entry 1036
  AUC: 0.973
  IC50: > 10 µM
PLX4720; [1]
  AUC: 0.982
  IC50: > 10 µM
Y-39983
  AUC: 0.904
  IC50: > 20 µM
TPCA-1
  AUC: 0.976
  IC50: > 20 µM

## AsPC-1 (pancreas, adherent)
Epothilone B
  AUC: 0.879
  IC50: > 0.032 µM
PHA-793887
  AUC: 0.92
  IC50: > 10.2 µM
PLX4720; screen: GDSC drug entry 1036
  AUC: 0.92
  IC50: > 10 µM
PLX4720; [1]
  AUC: 0.888
  IC50: > 10 µM
Y-39983
  AUC: 0.965
  IC50: > 20 µM
TPCA-1
  AUC: 0.859
  IC50: > 20 µM

## BCPAP (thyroid, adherent)
Epothilone B
  AUC: 0.342
  IC50: 0.000764 µM
PHA-793887
  AUC: 0.814
  IC50: 4.94 µM
PLX4720; screen: GDSC drug entry 1036
  AUC: 0.836
  IC50: 5.79 µM
PLX4720; [1]
  AUC: 0.903
  IC50: > 10 µM
Y-39983
  AUC: 0.921
  IC50: > 20 µM
TPCA-1
  AUC: 0.801
  IC50: 8.7 µM

## BEN (non-small cell lung carcinoma, adherent)
Epothilone B
  AUC: 0.763
  IC50: 0.0132 µM
PHA-793887
  AUC: 0.968
  IC50: > 10.2 µM
PLX4720; [1]
  AUC: 0.985
  IC50: > 10 µM
Y-39983
  AUC: 0.953
  IC50: > 20 µM
TPCA-1
  AUC: 0.865
  IC50: > 20 µM

## BFTC-905 (bladder, adherent)
Epothilone B
  AUC: 0.234
  IC50: 0.000391 µM
PHA-793887
  AUC: 0.671
  IC50: 1.77 µM
PLX4720; screen: GDSC drug entry 1036
  AUC: 0.959
  IC50: > 10 µM
PLX4720; [1]
  AUC: 0.972
  IC50: > 10 µM
Y-39983
  AUC: 0.977
  IC50: > 20 µM
TPCA-1
  AUC: 0.91
  IC50: > 20 µM

## BFTC-909 (kidney, adherent)
Epothilone B
  AUC: 0.475
  IC50: 0.00171 µM
PHA-793887
  AUC: 0.988
  IC50: > 10.2 µM
PLX4720; [1]
  AUC: 0.924
  IC50: > 10 µM
Y-39983
  AUC: 0.975
  IC50: > 20 µM
TPCA-1
  AUC: 0.965
  IC50: > 20 µM

## BHT-101 (thyroid, adherent)
Epothilone B
  AUC: 0.458
  IC50: 0.00153 µM
PHA-793887
  AUC: 0.985
  IC50: > 10.2 µM
PLX4720; screen: GDSC drug entry 1036
  AUC: 0.523
  IC50: 0.724 µM
PLX4720; [1]
  AUC: 0.657
  IC50: 1.73 µM
Y-39983
  AUC: 0.962
  IC50: > 20 µM
TPCA-1
  AUC: 0.794
  IC50: 9.52 µM

## BHY (head and neck, adherent)
Epothilone B
  AUC: 0.288
  IC50: 0.000501 µM
PHA-793887
  AUC: 0.815
  IC50: 5.66 µM
PLX4720; screen: GDSC drug entry 1036
  AUC: 0.966
  IC50: > 10 µM
PLX4720; [1]
  AUC: 0.96
  IC50: > 10 µM
Y-39983
  AUC: 0.958
  IC50: > 20 µM
TPCA-1
  AUC: 0.84
  IC50: 13.8 µM

## BICR10 (head and neck, adherent)
Epothilone B
  AUC: 0.797
  IC50: 0.0177 µM
PHA-793887
  AUC: 0.984
  IC50: > 10.2 µM
PLX4720; screen: GDSC drug entry 1036
  AUC: 0.96
  IC50: > 10 µM
PLX4720; [1]
  AUC: 0.981
  IC50: > 10 µM
Y-39983
  AUC: 0.985
  IC50: > 20 µM
TPCA-1
  AUC: 0.984
  IC50: > 20 µM

## BICR31 (head and neck, adherent)
Epothilone B
  AUC: 0.486
  IC50: 0.00183 µM
PHA-793887
  AUC: 0.968
  IC50: > 10.2 µM
Y-39983
  AUC: 0.962
  IC50: > 20 µM
TPCA-1
  AUC: 0.933
  IC50: > 20 µM

## CFPAC-1 (pancreas, adherent)
Epothilone B
  AUC: 0.424
  IC50: 0.0012 µM
PHA-793887
  AUC: 0.853
  IC50: 9.93 µM
Y-39983
  AUC: 0.984
  IC50: > 20 µM
TPCA-1
  AUC: 0.949
  IC50: > 20 µM

## Caov-3 (ovary, adherent)
Epothilone B
  AUC: 0.776
  IC50: 0.0112 µM
PHA-793887
  AUC: 0.584
  IC50: 1.06 µM
Y-39983
  AUC: 0.973
  IC50: > 20 µM
TPCA-1
  AUC: 0.886
  IC50: 17.5 µM

## H290 (mesothelioma, adherent)
Epothilone B
  AUC: 0.654
  IC50: 0.00514 µM
PHA-793887
  AUC: 0.931
  IC50: > 10.2 µM
PLX4720; screen: GDSC drug entry 1036
  AUC: 0.983
  IC50: > 10 µM
PLX4720; [1]
  AUC: 0.988
  IC50: > 10 µM

## HCC202 (breast, adherent)
Epothilone B
  AUC: 0.812
  IC50: 0.0266 µM
PLX4720; screen: GDSC drug entry 1036
  AUC: 0.926
  IC50: > 10 µM
PLX4720; [1]
  AUC: 0.978
  IC50: > 10 µM
Y-39983
  AUC: 0.977
  IC50: > 20 µM
TPCA-1
  AUC: 0.966
  IC50: > 20 µM

## HPAC (pancreas, adherent)
Epothilone B
  AUC: 0.47
  IC50: 0.00161 µM
PHA-793887
  AUC: 0.66
  IC50: 2.15 µM
Y-39983
  AUC: 0.979
  IC50: > 20 µM
TPCA-1
  AUC: 0.722
  IC50: 7.04 µM

## IGR-37 (melanoma, adherent)
Epothilone B
  AUC: 0.394
  IC50: 0.00106 µM
PHA-793887
  AUC: 0.989
  IC50: > 10.2 µM
PLX4720; screen: GDSC drug entry 1036
  AUC: 0.262
  IC50: 0.141 µM
PLX4720; [1]
  AUC: 0.313
  IC50: 0.198 µM
Y-39983
  AUC: 0.988
  IC50: > 20 µM

## IM-95 (stomach, adherent)
Epothilone B
  AUC: 0.569
  IC50: 0.00312 µM
PHA-793887
  AUC: 0.749
  IC50: 3.53 µM
Y-39983
  AUC: 0.915
  IC50: > 20 µM
TPCA-1
  AUC: 0.83
  IC50: 13.8 µM

## JHU-029 (head and neck, adherent)
Epothilone B
  AUC: 0.436
  IC50: 0.00128 µM
PLX4720; screen: GDSC drug entry 1036
  AUC: 0.962
  IC50: > 10 µM
PLX4720; [1]
  AUC: 0.95
  IC50: > 10 µM

## KP-1N (pancreas, adherent)
Epothilone B
  AUC: 0.506
  IC50: 0.00207 µM
PLX4720; screen: GDSC drug entry 1036
  AUC: 0.948
  IC50: > 10 µM
PLX4720; [1]
  AUC: 0.921
  IC50: > 10 µM

## NCI-H1734 (lung adenocarcinoma, adherent)
Epothilone B
  AUC: 0.779
  IC50: 0.0144 µM
PHA-793887
  AUC: 0.82
  IC50: 6.64 µM
Y-39983
  AUC: 0.951
  IC50: > 20 µM
TPCA-1
  AUC: 0.901
  IC50: > 20 µM

## NCI-H2228 (lung adenocarcinoma, adherent)
Epothilone B
  AUC: 0.316
  IC50: 0.000465 µM
PHA-793887
  AUC: 0.95
  IC50: > 10.2 µM
Y-39983
  AUC: 0.962
  IC50: > 20 µM
TPCA-1
  AUC: 0.861
  IC50: > 20 µM

## SCC90 (head and neck, adherent)
Epothilone B
  AUC: 0.689
  IC50: 0.00854 µM
PLX4720; screen: GDSC drug entry 1036
  AUC: 0.981
  IC50: > 10 µM
PLX4720; [1]
  AUC: 0.978
  IC50: > 10 µM

## SNU-475 (liver, adherent)
Epothilone B
  AUC: 0.884
  IC50: 0.0276 µM
PHA-793887
  AUC: 0.96
  IC50: > 10.2 µM
Y-39983
  AUC: 0.93
  IC50: > 20 µM
TPCA-1
  AUC: 0.918
  IC50: > 20 µM

## STS-0421 (soft tissue, adherent)
Epothilone B
  AUC: 0.649
  IC50: 0.00556 µM
PLX4720; screen: GDSC drug entry 1036
  AUC: 0.983
  IC50: > 10 µM
PLX4720; [1]
  AUC: 0.98
  IC50: > 10 µM

## UWB1.289 (ovary, adherent)
PHA-793887
  AUC: 0.925
  IC50: > 10.2 µM
PLX4720; screen: GDSC drug entry 1036
  AUC: 0.955
  IC50: > 10 µM
PLX4720; [1]
  AUC: 0.972
  IC50: > 10 µM
Y-39983
  AUC: 0.98
  IC50: > 20 µM
TPCA-1
  AUC: 0.794
  IC50: 15 µM

## VMRC-RCW (kidney, adherent)
Epothilone B
  AUC: 0.309
  IC50: 0.00061 µM
PHA-793887
  AUC: 0.98
  IC50: > 10.2 µM
Y-39983
  AUC: 0.975
  IC50: > 20 µM
TPCA-1
  AUC: 0.937
  IC50: > 20 µM

## YH-13 (glioma, adherent)
PHA-793887
  AUC: 0.979
  IC50: > 10.2 µM
PLX4720; screen: GDSC drug entry 1036
  AUC: 0.972
  IC50: > 10 µM
PLX4720; [1]
  AUC: 0.979
  IC50: > 10 µM
Y-39983
  AUC: 0.9
  IC50: > 20 µM
TPCA-1
  AUC: 0.887
  IC50: > 20 µM
